Counter-ions that a name gives are not always drawn. ± gives the standard deviation of the averaged measurements. The list shows a part of the results.

One assay has as its system murine small intestinal organoids (ENR+CD Paneth differentiation). The assay can be described thus: carbachol-stimulated secreted lysozyme activity relative to plate median (log10 fold change); higher = more Paneth cell lysozyme secretion. The settings on record: 2 µM; 6 d; carbachol 10 µM.
Regarding `CNC(=C[N+](=O)[O-])NCCSCc1ccc(CN(C)C)o1` [Ranitidine], the “carbachol-stimulated secreted lysozyme activity (log10)” value was -0.0482 ± 0.11.
The same measure, in the same setting: for `O=C(NOC[C@H](O)CO)c1ccc(F)c(F)c1Nc1ccc(I)cc1F` the value was -0.286 ± 0.025.
On to `COc1ccc2cccc(CCNC(C)=O)c2c1` [Agomelatine], for which the “carbachol-stimulated secreted lysozyme activity (log10)” value was -0.0551 ± 0.23.
The same measure, in the same setting: for `CNC(=O)c1cc(Oc2ccc(NC(=O)Nc3cc(C(C)(C)C)nn3-c3ccc4ncccc4c3)c(F)c2)ccn1` [DCC-2036 (Rebastinib)] the value was 0.0792 ± 0.13; for `CCN(CC)CC(=O)Nc1c(C)cccc1C` [Lidocaine], -0.0551 ± 0.046.

The same assay, now with this note: 10 µM; 6 d; carbachol 10 µM.
Consider `CC(NC(=O)C(O)c1cc(F)cc(F)c1)C(=O)NC1C(=O)N(C)c2ccccc2-c2ccccc21` (stereo not given), for which the “carbachol-stimulated secreted lysozyme activity (log10)” value is -0.167 ± 0.12.
The same measure, in the same setting: for `O=C(NCc1cccc(O)c1)Nc1nc(-c2ccncc2)cs1` the value was -0.208 ± 0.4; for `COc1cc2nc(N3CCN(C(=O)C4COc5ccccc5O4)CC3)nc(N)c2cc1OC` (stereo not given) [Doxazosin Mesylate], -0.00315 ± 0.15.
Same read-out and setting: in the case of `CC(C)Oc1ccc(-c2cnc3c(-c4ccnc5ccccc45)cnn3c2)cc1` it was -0.106 ± 0.08.
As to `CCc1nc(N)nc(N)c1-c1ccc(Cl)cc1` [Pyrimethamine], the “carbachol-stimulated secreted lysozyme activity (log10)” value was -0.113 ± 0.24.
As for `CS(=O)(=O)N1CCN(Cc2cc3nc(-c4cccc5[nH]ncc45)nc(N4CCOCC4)c3s2)CC1`, the “carbachol-stimulated secreted lysozyme activity (log10)” value is -0.317 ± 0.017.
The same measure, in the same setting: for `Cc1ccc(S(=O)(=O)n2c(N)nc3ccccc32)cc1` [ML130 (Nodinitib-1)] the value was -0.0633 ± 0.0079; for `C=CC(=O)Nc1cccc(Nc2nc(Nc3ccc(OCCOC)cc3)ncc2F)c1`, -0.458 ± 0.028.
On the same count and under the same terms, for `CC(C)C[C@H](NC(=O)[C@H](Cc1ccccc1)NC(=O)c1cnccn1)B(O)O` [Bortezomib (PS-341)] the value was -0.289 ± 0.1.
Take `CC(C)(C)c1cc(NC(=O)Nc2ccc(-c3cn4c(n3)sc3cc(OCCN5CCOCC5)ccc34)cc2)no1` [Quizartinib (AC220)]: the “carbachol-stimulated secreted lysozyme activity (log10)” value is -0.187 ± 0.29.
